# Key:
# Assay type in all cases: in vivo
# [1] = test system: Puccinia recondita; test: Test Example E: Brown rust on wheat; details: Table 7, Test E
# [2] = test system: Blumeria graminis f. sp. hordei; test: Test Example D: Powdery mildew on barley; details: Table 7, Test D
# [3] = test system: Alternaia brassicicola; test: Test Example C: Alternaria sooty spot on cabbage; details: Table 7, Test C
# [4] = test system: Plasmopara viticola; test: Test Example G: Downy mildew on vine; details: 250 ppm sprayed (2.5 ml/pot) before inoculation; assessed 7 to 10 days after inoculation
# [5] = test system: Botrytis cinerea; test: Test Example B: Gray mold on tomato; details: Table 7, Test B
Compound,"control value, Test E (brown rust on wheat) [1]","control value, Test D (powdery mildew on barley) [2]","control value, Test C (Alternaria sooty spot on cabbage) [3]","control value, Test G (downy mildew on vine) [4]","control value, Test B (gray mold on tomato) [5]"
O=c1ccc(-n2cc(Cl)cn2)c(-c2ccccc2F)n1CC(F)F [Compound 276],L (L shows the control value of 50% or less),H (H shows the control value more than 50%),H (H shows the control value more than 50%),L (L shows the control value of 50% or less),L (L shows the control value of 50% or less)
O=c1c(Cl)cc(-n2cc(Cl)cn2)c(-c2ccccc2F)n1CC(F)F [Compound 277],H (H shows the control value more than 50%),H (H shows the control value more than 50%),H (H shows the control value more than 50%),H (H shows the control value more than 50%),H (H shows the control value more than 50%)
CCn1c(-c2ccc(C#N)cc2F)c(-n2cc(Cl)cn2)cc(Cl)c1=O [Compound 279],H (H shows the control value more than 50%),L (L shows the control value of 50% or less),H (H shows the control value more than 50%),L (L shows the control value of 50% or less),H (H shows the control value more than 50%)
CCn1c(-c2ccc(C#N)cc2F)c(-n2cc(Cl)cn2)cc(Br)c1=O [Compound 280],H (H shows the control value more than 50%),L (L shows the control value of 50% or less),H (H shows the control value more than 50%),L (L shows the control value of 50% or less),L (L shows the control value of 50% or less)
CCn1c(-c2c(F)cc(F)cc2F)c(-n2cnnn2)ccc1=O [Compound 281],L (L shows the control value of 50% or less),H (H shows the control value more than 50%),H (H shows the control value more than 50%),L (L shows the control value of 50% or less),L (L shows the control value of 50% or less)
O=c1c(Br)cc(-n2cc(F)cn2)c(-c2c(F)cc(F)cc2F)n1CC(F)F [Compound 283],H (H shows the control value more than 50%),H (H shows the control value more than 50%),H (H shows the control value more than 50%),L (L shows the control value of 50% or less),H (H shows the control value more than 50%)
O=c1ccc(-n2cc(F)cn2)c(-c2ccc(F)cc2F)n1CC(F)F [Compound 284],H (H shows the control value more than 50%),H (H shows the control value more than 50%),H (H shows the control value more than 50%),L (L shows the control value of 50% or less),H (H shows the control value more than 50%)
O=c1c(Cl)cc(-n2cc(F)cn2)c(-c2ccc(F)cc2F)n1CC(F)F [Compound 285],H (H shows the control value more than 50%),H (H shows the control value more than 50%),H (H shows the control value more than 50%),L (L shows the control value of 50% or less),H (H shows the control value more than 50%)
O=c1c(Br)cc(-n2cc(F)cn2)c(-c2ccc(F)cc2F)n1CC(F)F [Compound 286],H (H shows the control value more than 50%),H (H shows the control value more than 50%),H (H shows the control value more than 50%),L (L shows the control value of 50% or less),H (H shows the control value more than 50%)
COc1ccc(-c2c(-n3cc(Cl)cn3)cc(Br)c(=O)n2CC(F)F)c(Br)c1 [Compound 288],H (H shows the control value more than 50%),L (L shows the control value of 50% or less),H (H shows the control value more than 50%),L (L shows the control value of 50% or less),H (H shows the control value more than 50%)
O=c1c(Cl)cc(-n2cc(Cl)cn2)c(-c2ccccc2Br)n1CC(F)F [Compound 290],H (H shows the control value more than 50%),H (H shows the control value more than 50%),H (H shows the control value more than 50%),L (L shows the control value of 50% or less),L (L shows the control value of 50% or less)
O=c1c(Br)cc(-n2cc(Cl)cn2)c(-c2ccccc2Br)n1CC(F)F [Compound 291],L (L shows the control value of 50% or less),L (L shows the control value of 50% or less),H (H shows the control value more than 50%),L (L shows the control value of 50% or less),L (L shows the control value of 50% or less)
O=c1ccc(-n2cc(Cl)cn2)c(-c2ccccc2Cl)n1CC(F)F [Compound 292],H (H shows the control value more than 50%),H (H shows the control value more than 50%),H (H shows the control value more than 50%),L (L shows the control value of 50% or less),H (H shows the control value more than 50%)
O=c1c(Cl)cc(-n2cc(Cl)cn2)c(-c2ccccc2Cl)n1CC(F)F [Compound 293],H (H shows the control value more than 50%),H (H shows the control value more than 50%),H (H shows the control value more than 50%),L (L shows the control value of 50% or less),H (H shows the control value more than 50%)
CCn1c(-c2c(F)cccc2F)c(-c2ccsc2Cl)ccc1=O [Compound 296],H (H shows the control value more than 50%),H (H shows the control value more than 50%),H (H shows the control value more than 50%),H (H shows the control value more than 50%),H (H shows the control value more than 50%)
CCn1c(-c2c(F)cccc2F)c(-c2cc(Cl)sc2Cl)cc(Cl)c1=O [Compound 297],H (H shows the control value more than 50%),L (L shows the control value of 50% or less),L (L shows the control value of 50% or less),L (L shows the control value of 50% or less),L (L shows the control value of 50% or less)
CCn1c(-c2c(F)cccc2F)c(-c2ccsc2Cl)cc(Cl)c1=O [Compound 298],H (H shows the control value more than 50%),L (L shows the control value of 50% or less),H (H shows the control value more than 50%),L (L shows the control value of 50% or less),H (H shows the control value more than 50%)
CCn1c(-c2c(F)cccc2F)c(-c2ccsc2Cl)cc(Br)c1=O [Compound 299],H (H shows the control value more than 50%),L (L shows the control value of 50% or less),H (H shows the control value more than 50%),L (L shows the control value of 50% or less),H (H shows the control value more than 50%)
